According to PubChem BioAssay AID686979 (National Center for Advancing Translational Sciences (NCATS), 2013):
Values joined by “and” are separate entries in the source; they are usually repeats but may differ in a detail not shown here. Equal entries are not always repeated. Hit rate of the full screen: of about 420,000 compounds, about 50,000 (12%) were called active. Inconclusive results, whose numbers are uncertain, are shown with a selection of clear calls. Calls follow the shape of the dose curve; as a rule, active = well fitted inhibition curve with a large enough effect; inconclusive = small, poorly fitted or top-dose-only effect; inactive = flat fitted curve, though single readings scatter. Where the call is inconclusive, the potency comes from a doubtful curve fit.

Assay: qHTS for Inhibitors of human tyrosyl-DNA phosphodiesterase 1 (TDP1): qHTS in cells in presence of CPT; also: nearly all actives have a fitted effect of over 55% in size
Settings: chicken DT40 Tdp1-/-;hTDP1 cells + 20 nM CPT, ATP luminescence, 48 h; activity change, negative = growth inhibition: at 46.2 µM (top of the series) unless noted
In short: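 Chicken DT40 Tdp1-/- cells complemented with human TDP1, 400 cells/well, exposed to compounds plus 20 nM camptothecin for at least 48 h at 37 C; viability read as ATP content by CellTiter-Glo luminescence.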
% is scaled to controls: 0 for no effect and ±100 for the full control effect; potency is read from the fitted curve at half-maximal effect; tags tell the direction and shape of the fitted curve.

Row | SMILES | activity change, negative = growth inhibition | Potency
1 | O=C(NNC(=O)c1cc2ccccc2o1)c1ccncc1 | inactive: -6.12% | –
2 | CN(C/C=C/C#CC(C)(C)C)Cc1cccc2ccccc12 | – | inconclusive: 33.5 µM [inhibitor, single point] and inconclusive: 20.6 µM [inhibitor, single point]
3 | Cc1[nH][nH]c(=O)c1C(c1c(C)[nH][nH]c1=O)c1cn(Cc2ccc(F)cc2)c2ccccc12 | – | active: 6.51 µM
4 | O=C(O)C(F)=C1c2ccccc2-c2ccccc21 | inactive: -15.8% | –
5 | Cc1cc(=O)oc2cc(OC(C)C(=O)O)c(Cl)cc12 (centres undefined) | inactive: -22.4% | –
6 | Oc1ccc(-c2n[nH]c(=S)n2-c2ccc3c(c2)OCCO3)c(O)c1 | – | inconclusive: 29.1 µM [inhibitor, single point]
7 | Cc1ccc2cc(C#N)c(N3CCCN(S(=O)(=O)c4ccccc4)CC3)nc2c1 | – | inconclusive: 29.1 µM [inhibitor, single point]
8 | Cc1ccc2nc(Cl)c(C3CC(c4ccco4)=NN3C(=O)CCCC(=O)O)cc2c1 (centres undefined) | inactive: -8.87% | –
9 | CCc1ccc(CN(C)C(=O)c2cccc(S(=O)(=O)Nc3ccccc3OC)c2)cc1 | – | inconclusive: 29.1 µM [inhibitor, single point]
10 | Cc1ccc(CSc2nc3ccccc3c(=O)n2C)cc1 | – | inconclusive: 18.4 µM [inhibitor, single point]
11 | Cc1[nH]nc(SCC(=O)NC2CCCC2)c1[N+](=O)[O-] | inactive: 0.574% | –
12 | OC(CN1C2=NCCCN2c2ccccc21)c1ccc2c(c1)OCO2 (centres undefined) | inactive: -9.92% | –
13 | O=C(CN1CCN(S(=O)(=O)N2CCCCC2)CC1)Nc1ccc(Cl)c(Cl)c1 | – | inconclusive: 29.1 µM [inhibitor, single point]
14 | COc1ccc(CNc2cccnc2)c(OC)c1OC | inactive: -22.8% | –
15 | Cn1c2ccccc2n2c(=O)c(Cl)c(-c3ccccc3)c(C#N)c12 | – | inconclusive: 25.9 µM [inhibitor, single point]
16 | CN(Cc1ccc(Cl)cc1)C(=O)COC(=O)c1ccc(-c2ccc(O)cc2)cc1 | – | inconclusive: 29.1 µM [inhibitor, single point]
17 | COc1ccc2c(CN3CCN(c4ccccc4OC)CC3)cc(=O)oc2c1 | – | inconclusive: 18.4 µM [inhibitor, single point]
18 | CC(CC(=O)NCCc1ccc(Cl)cc1)S(=O)(=O)c1ccc2c(c1)NC(=O)CO2 (centres undefined) | – | inconclusive: 29.1 µM [inhibitor, single point]
19 | O=C(Cc1cscn1)N1CCOc2ccc(CN3CCN(c4ccccn4)CC3)cc2C1 | inactive: -1.29% [at 9.04 µM] | –
20 | CC1CCCN(C(=O)c2ccc(S(=O)(=O)N3CCC(c4nc5ccccc5s4)CC3)cc2)C1 (centres undefined) | – | active: 11.6 µM
21 | CN1C(=O)[C@H]2[C@@H](/C=C/c3ccccc3)N3C(=O)CN(Cc4ccc(-c5ccccc5)cc4)C(=O)[C@@]3(C)[C@H]2C1=O | – | active: 25.9 µM
22 | CCOC(=O)c1c(C)[nH]c(C(=O)CSc2nc(C)cc(C)n2)c1C | – | active: 14.6 µM

Row | SMILES | activity change, negative = growth inhibition | Potency
23 | Cn1cc(C(=O)N/N=C/c2ccc(Br)c([N+](=O)[O-])c2)c2ccccc21 | – | inconclusive: 10.3 µM [inhibitor, partial curve]
24 | CN(Cc1ccco1)C(=O)CCc1nc2sc3c(c2c(=O)[nH]1)CCCC3 | – | inconclusive: 29.1 µM [inhibitor, single point]
25 | O=C1OC(/C=C/c2ccc(Cl)cc2Cl)=NC/1=C\c1cccs1 | – | inconclusive: 5.8 µM [inhibitor, full curve, poor fit]
26 | CCCCOC(=O)c1ccc(Nc2ncnc3nc[nH]c23)cc1 | inactive: 2% | –
27 | CCOC(=O)N1CCC(NC(=O)C2CCN(c3nc(-c4ccc(OC)cc4)no3)CC2)CC1 | – | inconclusive: 4.11 µM [inhibitor, full curve]
28 | COCCn1c(N)c(N(Cc2ccccc2)C(=O)c2ccc(-c3ccc(Cl)cc3)o2)c(=O)[nH]c1=O | – | inconclusive: 13 µM [inhibitor, single point]
29 | Cc1ccccc1CN(C)C[C@@H]1OCc2cnnn2CCCC(=O)N([C@H](C)CO)C[C@H]1C | inactive: 4.32% | –
30 | COc1ccc(NC(=O)CN2C(=O)/C(=C3\SC(=S)N(CCC(=O)O)C3=O)c3ccccc32)cc1 | inactive: -1.64% | –
31 | O=C(c1ccc(-c2cccc(Cl)c2)o1)N1CCN(c2ccc([N+](=O)[O-])cc2)CC1 | – | inconclusive: 23.1 µM [inhibitor, single point]
32 | CN(C)C(=O)c1ccc(COc2ccccc2Br)o1 | – | inconclusive: 20.6 µM [inhibitor, single point]
33 | Cc1cc(C)c(C)c(OCC(=O)NCC2CCCO2)c1 (centres undefined) | inconclusive: -24.9% [inhibitor] | –
34 | O=C(/C=C/c1ccc(F)cc1)c1ccccc1Br | – | inconclusive: 18.4 µM [inhibitor, single point]
35 | Cc1cccc(NC(=O)C2c3ccccc3Oc3ccccc32)n1 | – | active: 14.6 µM
36 | O=C(NCCc1nc2ccccc2[nH]1)/C(=C/c1ccco1)NC(=O)c1ccc(Br)o1 | inconclusive: -31.7% [inhibitor] | –
37 | COCCn1nnnc1C(c1cccc(C(F)(F)F)c1)N1CCN(Cc2ccccc2)CC1 (centres undefined) | – | inconclusive: 23.1 µM [inhibitor, single point]
38 | Cc1ccccc1CNC(=O)CCCn1c(=O)c2cccn2c2cccnc21 | – | inconclusive: 14.6 µM [inhibitor, partial curve]
39 | CCN1C(=O)C(O)(CC(=O)c2ccc(-n3cccc3)cc2)c2ccccc21 (centres undefined) | – | inconclusive: 29.1 µM [inhibitor, single point]
40 | Cc1nc(SCC(=O)NCC2CCCO2)c2c3c(sc2n1)CCCC3 (centres undefined) | – | inconclusive: 29.1 µM [inhibitor, single point]
41 | ClCc1ncc(-c2ccc(Cl)cc2)o1 | – | active: 14.6 µM
42 | COC(=O)Cc1ccc(O)c(N)c1 | – | inconclusive: 29.1 µM [inhibitor, single point]
43 | Cc1cccc(C)c1N(CCCc1cccnc1)C(=O)C(C)N (centres undefined) | – | inconclusive: 2.66 µM [inhibitor, partial curve, poor fit]
44 | CCOC(=O)[C@]12CCC=C1N(Cc1ccco1)C(=O)[C@H](CC(=O)NCCc1ccccc1OC)C2 | – | inconclusive: 29.1 µM [inhibitor, single point]
